Out of some 360,000 compounds screened, about 420 (0.12%) were called active. Inconclusive means that the source gave no clear call. Such entries were picked first, then a sample of the others. Cut-off read from the data, not from the text of the source: active = inhibition above about 30%; inconclusive = no clear call, values can overlap the other calls; inactive = below that.
target: Lethal factor (Bacillus anthracis) (UniProt P15917); assay: anthrax lethal factor cleavage blockers – biochemical, multiplex microsphere, MLPCN library, primary screen (AID 588501); settings: multiplex microsphere protease cleavage assay, LF; at 10 µM; hits give high values; note: plate controls were buffer without enzyme for full effect and enzyme alone for no effect
UniProt P15917, sequence (P15917 whole entry, looked up): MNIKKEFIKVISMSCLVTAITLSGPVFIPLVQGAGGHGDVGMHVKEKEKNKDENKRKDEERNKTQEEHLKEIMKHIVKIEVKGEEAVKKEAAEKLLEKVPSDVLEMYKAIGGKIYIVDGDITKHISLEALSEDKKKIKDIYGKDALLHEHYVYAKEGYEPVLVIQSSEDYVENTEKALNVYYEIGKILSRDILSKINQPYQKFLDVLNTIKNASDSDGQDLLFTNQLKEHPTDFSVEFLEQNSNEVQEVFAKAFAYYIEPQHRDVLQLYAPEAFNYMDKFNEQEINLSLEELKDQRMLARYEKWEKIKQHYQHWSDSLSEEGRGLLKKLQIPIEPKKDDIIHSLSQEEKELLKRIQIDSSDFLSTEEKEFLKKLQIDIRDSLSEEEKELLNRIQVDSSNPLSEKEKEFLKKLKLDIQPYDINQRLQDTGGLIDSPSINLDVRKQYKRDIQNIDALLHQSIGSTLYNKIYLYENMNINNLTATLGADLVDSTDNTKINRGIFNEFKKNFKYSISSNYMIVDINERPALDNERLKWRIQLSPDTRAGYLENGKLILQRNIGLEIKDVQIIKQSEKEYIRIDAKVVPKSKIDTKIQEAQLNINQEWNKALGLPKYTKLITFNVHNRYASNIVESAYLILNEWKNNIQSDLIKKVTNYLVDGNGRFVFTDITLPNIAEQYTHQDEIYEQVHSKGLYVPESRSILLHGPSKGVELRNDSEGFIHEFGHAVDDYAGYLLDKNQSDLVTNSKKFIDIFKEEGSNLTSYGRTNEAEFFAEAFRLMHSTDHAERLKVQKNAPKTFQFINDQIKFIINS

Which inhibition does the source give for `C=CCNC(=S)NNC(=O)c1cccn(Cc2ccc(Cl)cc2)c1=O` here?
The inhibition was inconclusive: 28.7%.

With `Cc1cc2c(NC(=O)Nc3ccc(F)cc3)cccc2nn1` as the molecule, how does the inhibition read?
Its inhibition is inconclusive: -12.3%.

With `CCCCn1c(N)c(N(CC(C)C)C(=O)c2ccc(Cl)c(S(=O)(=O)N3CCCC3)c2)c(=O)[nH]c1=O` as the molecule, how does the inhibition read?
Its inhibition is inconclusive: 3%.

How did the inhibition turn out when `COc1ccc(NC(=O)c2cc(-c3cc(C)ccc3O)n[nH]2)cc1Cl` was run?
Its inhibition is inconclusive: 3.2%.

For `Cc1cccnc1NC(=O)c1ccc2c(c1)OCO2`, which inhibition is on record?
Its inhibition is inconclusive: -1.8%.

Which inhibition does the source give for `CCN(CC)C(=O)C[n+]1cccc(C(N)=O)c1` here?
Its inhibition is inactive: -1.2%.

Which inhibition does the source give for `CCOC(=O)C(Sc1ncn[nH]1)c1ccccc1` (configuration not stated) here?
The inhibition was inconclusive: 3.7%.

How did the inhibition turn out when `COc1ccc(Cl)cc1NC(=S)N1CC(C)OC(C)C1` (configuration not stated) was run?
Its inhibition is inconclusive: 7.5%.

How did the inhibition turn out when `COc1ccc(N2CCN(C(=N)/C(C(C)=O)=C(\C)O)CC2)cc1` was run?
The inhibition was inconclusive: -9.3%.

`COc1ccccc1NC(=O)Nc1nc(CC(=O)NCc2ccc(F)cc2)cs1` was tested. Which inhibition did it give?
The inhibition was inconclusive: -3.6%.

With `O=C1CC(NS(=O)(=O)c2ccc3ccccc3c2)CN1c1ccccc1` (configuration not stated) as the molecule, how does the inhibition read?
Its inhibition is inconclusive: -4.1%.

With `Cc1ccc(OCC(=O)OC2CCS(=O)(=O)C2)cc1` (configuration not stated) as the molecule, how does the inhibition read?
Its inhibition is inconclusive: -15.2%.

Which inhibition does the source give for `CCOC(=O)c1ccc(NC(=S)NNC(C)(C)C)cc1` here?
The inhibition was inconclusive: -37.3%.

For `COc1ccc(N2CCN(C(=O)COC(=O)CNC(=O)c3cccc(OC(F)F)c3)CC2)cc1`, which inhibition is on record?
The inhibition was inconclusive: -3.3%.

For `Cc1cccc(NC(=O)CN2C(=O)NC3(CCCC3)C2=O)n1`, which inhibition is on record?
The inhibition was inactive: 3.1%.

For `O=C(NCc1ccco1)C1CCCN(S(=O)(=O)c2cc(Cl)ccc2Cl)C1` (configuration not stated), which inhibition is on record?
The inhibition was inactive: -0.3%.

With `CCNS(=O)(=O)c1ccc(Br)c(C(=O)OC(C)C(=O)NCC2CCCCC2)c1` (configuration not stated) as the molecule, how does the inhibition read?
The inhibition was inactive: -9.6%.

For `COc1ccc(OC)c(C(=O)c2c(C)oc3cc([N+](=O)[O-])c(O)c([N+](=O)[O-])c23)c1`, which inhibition is on record?
Its inhibition is inactive: -2.4%.

For `CCOc1ccccc1C(=O)N(CN1CCCC1=O)c1ccc(C)c(Cl)c1`, which inhibition is on record?
Its inhibition is inconclusive: -4.5%.

How did the inhibition turn out when `Cc1ccc2c(CN3CCCc4ccccc43)cc(=O)oc2c1C` was run?
The inhibition was inconclusive: -8.2%.

With `CCn1c(=O)n(CC)c2cc(N3CCCC3)c(NC(=O)c3cccc(C)c3)cc21` as the molecule, how does the inhibition read?
The inhibition was inconclusive: -5.2%.

Which inhibition does the source give for `O=C(NCc1ccccc1F)C(=O)NCC1CCCN1S(=O)(=O)c1cccs1` (configuration not stated) here?
The inhibition was inconclusive: -1.4%.

How did the inhibition turn out when `c1ccc(-c2nc3ccccn3c2NCc2ccc3c(c2)OCO3)cc1` was run?
Its inhibition is inactive: -7.9%.

For `CCN(C(=O)COC(=O)c1cc(S(=O)(=O)N2CCOCC2)ccc1F)C1CCS(=O)(=O)C1` (configuration not stated), which inhibition is on record?
Its inhibition is inconclusive: 0.2%.

`COc1cccc(C(=O)Nc2nnc(S(=O)(=O)N(C)Cc3ccc(F)cc3)s2)c1` was tested. Which inhibition did it give?
Its inhibition is inactive: -0.4%.

With `Cc1cccc(NC(=O)Cn2nnc(-c3cccs3)n2)c1C` as the molecule, how does the inhibition read?
The inhibition was inconclusive: 5.8%.

For `CC(=O)c1cnn(-c2ccc(Cl)c(Cl)c2Cl)c1C`, which inhibition is on record?
Its inhibition is inconclusive: -20.1%.

Which inhibition does the source give for `O=C1NC(=O)N(CCC2=CCCCC2)C(=O)/C1=C/c1cccs1` here?
Its inhibition is inconclusive: 20.6%.

How did the inhibition turn out when `CCN1C(=O)CC(NNC(=O)c2ccc(Cl)cc2)C1=O` (configuration not stated) was run?
Its inhibition is inconclusive: -20%.

Which inhibition does the source give for `Cc1ccc(OCC(=O)NC(C)c2ccc(Cl)c(Cl)c2)c([N+](=O)[O-])n1` (configuration not stated) here?
The inhibition was inactive: 3.5%.

For `CS(=O)(=O)c1cccc(S(=O)(=O)N2CCCCCC2)c1`, which inhibition is on record?
Its inhibition is inactive: 0.3%.

`Cc1cc(N)n(-c2ccc3ccccc3c2)n1` was tested. Which inhibition did it give?
The inhibition was inconclusive: -82.7%.

With `O=C1CC(N2CCN(Cc3ccccc3)CC2)C(=O)N1` (configuration not stated) as the molecule, how does the inhibition read?
The inhibition was inactive: -1.2%.

With `Cc1ccc(NC(=O)c2ccc(S(=O)(=O)Nc3c(C)n(C)n(-c4ccccc4)c3=O)cc2)nc1` as the molecule, how does the inhibition read?
The inhibition was inconclusive: 0.1%.

Which inhibition does the source give for `CC(OC(=O)c1ccco1)C(=O)Nc1nc(-c2ccccc2)cs1` (configuration not stated) here?
The inhibition was inactive: 0%.

With `Cc1ccc(S(=O)(=O)N2CCC(C(=O)OCC(=O)N3CCC(C)CC3)CC2)cc1C` as the molecule, how does the inhibition read?
The inhibition was inactive: -3.6%.

With `O=C(CSC1=NS(=O)(=O)c2ccccc2N1)c1ccccc1` as the molecule, how does the inhibition read?
The inhibition was inconclusive: 0.5%.

`O=C(O)c1ccc2c(c1)CCCN2` was tested. Which inhibition did it give?
The inhibition was inconclusive: -2.4%.

`O=C(Nc1cccc(NC(=O)C2CCCO2)c1)C1CCCO1` (configuration not stated) was tested. Which inhibition did it give?
The inhibition was inactive: -3.3%.

For `O=S(=O)(c1ccc(SCc2ccc(Br)cc2)nc1)N1CCOCC1`, which inhibition is on record?
Its inhibition is inconclusive: -2.3%.

With `CC(=O)Nc1ccc(NC(=O)CN(c2cccc(C(C)=O)c2)S(C)(=O)=O)cc1` as the molecule, how does the inhibition read?
The inhibition was inactive: -3.6%.

How did the inhibition turn out when `COCCCN1C(=O)c2ccc(C(=O)NCCc3ccccc3)cc2C1=O` was run?
The inhibition was inactive: -1.3%.

With `CN(Cc1cc2ccccc2[nH]c1=O)S(C)(=O)=O` as the molecule, how does the inhibition read?
The inhibition was inconclusive: -0.7%.

For `CN(CC(=O)Nc1ccc(F)cc1)C(=O)c1ccc2ccccc2n1`, which inhibition is on record?
The inhibition was inconclusive: -17.5%.

For `COc1cc(/C=N/N2CCN(c3ccccc3OC)CC2)ccc1OC(C)=O`, which inhibition is on record?
The inhibition was active: 42.2%.

With `O=C(COC(=O)CCN1C(=O)C2CC=CCC2C1=O)Nc1ccc([N+](=O)[O-])cc1` (configuration not stated) as the molecule, how does the inhibition read?
Its inhibition is inactive: 12.5%.

For `CCCCN(C(=O)Cc1coc2cc(C)c(C)cc12)c1c(N)n(Cc2ccccc2)c(=O)[nH]c1=O`, which inhibition is on record?
The inhibition was inconclusive: -5.3%.

For `O=C(CSc1ncn[nH]1)N1CCN(S(=O)(=O)c2ccc(Cl)cc2)CC1`, which inhibition is on record?
The inhibition was inactive: -1.9%.

`Brc1ccc(-n2c(SCc3nc4ccccc4[nH]3)nnc2-c2ccncc2)cc1` was tested. Which inhibition did it give?
The inhibition was inactive: 0.7%.

`O=C(c1ccc(Cl)nc1)N1CCN(S(=O)(=O)c2ccc3c(c2)OCCO3)CC1` was tested. Which inhibition did it give?
The inhibition was inconclusive: 6%.

With `CCN(CC(=O)Nc1ccc(NC(C)=O)cc1)C(=O)CCN1C(=O)C2CC=CCC2C1=O` (configuration not stated) as the molecule, how does the inhibition read?
The inhibition was inconclusive: -4%.

For `CCNc1ccc(Br)cc(C(=O)/C=C/c2ccccc2Cl)c1=O`, which inhibition is on record?
Its inhibition is active: 45.1%.

With `O=C(CCS(=O)(=O)c1ccc(Cl)cc1)Nc1nnc(-c2ccco2)o1` as the molecule, how does the inhibition read?
The inhibition was inconclusive: 2.1%.

For `CCOC(=O)C1(C#N)Cc2ccccc2C1`, which inhibition is on record?
The inhibition was inactive: 3.2%.

How did the inhibition turn out when `N#C/C(=C/c1ccc(-c2ccccc2)o1)c1nc(-c2cccs2)cs1` was run?
The inhibition was active: 34.1%.

Which inhibition does the source give for `CCN(CC(=O)Nc1ccccc1C(F)(F)F)C(=O)c1ccccc1Cc1ccccc1` here?
Its inhibition is inactive: -2.7%.

How did the inhibition turn out when `CC(=O)Nc1ccc(Nc2ncnc3c2cnn3-c2ccc(C)cc2C)cc1` was run?
Its inhibition is inconclusive: -4.4%.
